Assay results reported in PubChem BioAssay AID624296 (National Center for Advancing Translational Sciences (NCATS), 2012).
Values joined by “and” are separate entries in the source; they are usually repeats but may differ in a detail not shown here. Identical values can stand only once. The whole screen tested about 350,000 compounds, of which about 9,900 (2.8%) were called active. The shares of active, inactive and inconclusive entries below differ from those in the screen. Calls come from the whole dose curve; as a rule, active = well fitted activation curve with a large enough effect; inconclusive = small, poorly fitted or top-dose-only effect; inactive = no such curve, though single readings can be large or run the other way. A potency beside an inconclusive call is a rough fit, not a confirmed value.

experiment: A quantitative high throughput screen for small molecules that induce DNA re-replication in MCF 10a normal breast cells.; note: nearly all actives have a fitted effect of over 50% in size; for activity, positive = re-replication: % of control where 0% means no effect; conditions: MCF 10A DNA re-replication, Hoechst nuclear intensity, 48 h; activity, positive = re-replication: at 46.1 µM (top of the series)
Potency is the fitted concentration of half-maximal effect; tags give direction and shape of the fitted curve.

SMILES | Potency | activity, positive = re-replication
CN(Cc1ccccc1)C(=O)c1ccc(NC(=O)Cc2cccc(NC(=O)C3CCCN(C(=O)C4CCCC4)C3)c2)cc1 (centres undefined) | inconclusive: 3.66 µM [activator, partial curve, poor fit] | 
Cc1nc2c(c3c1[nH]c1ccccc13)C(=O)CC(C)(C)C2 | active: 23.1 µM | 
O=C(CN1CCN(S(=O)(=O)/C=C/c2ccccc2)CC1)NCC(F)(F)F | inactive | 
CCCCNC(=O)c1c(CSc2ccccc2)noc1C(=O)NCc1ccccc1 | inconclusive: 2.06 µM [activator, full curve, poor fit] | 
Cc1cc(S(=O)(=O)N2CCCOC2CNC(=O)C(=O)NCc2ccco2)ccc1F (centres undefined) | active: 8.2 µM | 
O=[N+]([O-])c1ccc(Sc2ncccn2)c([N+](=O)[O-])c1 | active: 18.4 µM | 
Cc1ccccc1OCCCC(=O)Nc1ccc(N2CCOCC2)cc1 | inconclusive: 29.1 µM [activator, single point] | 
C/C(=N\N=C(/N)SC1CC(=O)N(c2ccc(Cl)cc2)C1=O)c1cccs1 (centres undefined) | inconclusive: 23.1 µM [activator, single point] | 
Cc1ccc(OC(C)C(=O)Nc2ccc(F)cc2)c([N+](=O)[O-])n1 (centres undefined) | inactive | 
Cc1ccc(C(=O)N2CC(C)SC2=Nc2cccc(S(=O)(=O)N(C)C)c2)cc1 (centres undefined) | inactive | 
CCOc1ccccc1N1CCN(C(=O)Cc2ccc(S(=O)(=O)N3CCOCC3)s2)CC1 | inactive | 
O=C(NCCC1CCCCN1S(=O)(=O)c1cccs1)C(=O)Nc1ccccc1 (centres undefined) | inconclusive: 8.2 µM [activator, partial curve] | 
O=C(NCCC1=CCCCC1)C1CCCN(S(=O)(=O)c2ccc(F)cc2)C1 (centres undefined) | inconclusive: 35.5 µM [activator, single point] | 
Cc1ccc(OCCn2c(=O)cnc3ccccc32)cc1 | inconclusive: 18.4 µM [activator, single point] | 
COc1ccc(N(CC(=O)Nc2ccc3c(c2)OCCO3)S(=O)(=O)c2cccc(C)c2)cc1 | inactive | 
CC(=O)c1cccc(Nc2nc(-c3ccccc3)cs2)c1 | inconclusive: 29.1 µM [activator, partial curve, poor fit] | 
c1ccc2c(c1)NCC1CCCN21 (centres undefined) | inconclusive: 6.51 µM [activator, partial curve, poor fit] | 
COc1ccc(OC)c(NC(=S)NCc2ccc(S(N)(=O)=O)cc2)c1 | inactive | 
COc1ccc(CN2C(=O)c3cccc4cccc2c34)cc1F | active: 20.6 µM | 
N#CC1=C(SCc2ccccc2)NC(=O)CC1c1ccc(O)cc1 (centres undefined) | inactive | 
N#CC(c1ccc(Cl)cc1)c1nc2ccccc2nc1C(F)(F)F (centres undefined) |  | inconclusive: 33% [activator]
CC1CN(S(=O)(=O)c2cc(C(=O)N(C)Cc3cccs3)ccc2Cl)CC(C)O1 (centres undefined) | inactive | 

SMILES | Potency | activity, positive = re-replication
CCCCCCOC(=O)Nc1ccc(S(=O)(=O)Nc2cccc([N+](=O)[O-])c2)cc1 | inconclusive: 18.4 µM [activator, single point] | 
Cc1cccc(NC(=O)CSCC(=O)Nc2cccc(S(=O)(=O)N3CCCCCC3)c2)c1 | inconclusive: 23.1 µM [activator, partial curve, poor fit] | 
CCCc1nc(SCC(=O)N2CCC(C)CC2)c2c(=O)n(C)c(=O)n(C)c2n1 | inconclusive: 23.1 µM [activator, partial curve, poor fit] | 
COc1ccccc1-c1c(C)nn2c(N3CCN(Cc4ccccc4)CC3)cc(C)nc12 | inconclusive: 16.4 µM [activator, partial curve, poor fit] | 
COc1ccc(C(=O)N2CCNC(=O)C2CC(=O)Nc2cc(Cl)ccc2OC)cc1 (centres undefined) | inactive | 
CC[C@@H]1C(c2cccc(C)c2)=NN(c2ccccc2)[C@H]1C(=O)N1CCOC1=O | inconclusive: 16.4 µM [activator, single point] | 
CCn1c(CNc2cccc(Cl)c2)nnc1SCC(=O)OC1CCCCC1 | inactive | 
O=[N+]([O-])c1cccc(/C=N/Nc2nc(NCc3ccccc3)nc(N3CCOCC3)n2)c1O | inconclusive: 1.64 µM [activator, partial curve, poor fit] | 
O=C(c1cccs1)N(Cc1cccc(Cl)c1)C1CCS(=O)(=O)C1 (centres undefined) | inactive | 
O=C(CC1Nc2ccccc2NC1=O)Nc1cc(Cl)cc(Cl)c1 (centres undefined) | inconclusive: 0.411 µM [activator, partial curve, poor fit] | 
CCCCOc1ccc(C(O)C(CN2CCOCC2)c2ccccc2)cc1 (centres undefined) | inconclusive: 23.1 µM [activator, partial curve] | 
CCCc1nn2c(N)c(/C=C3\C=Nc4ccccc43)c(=O)nc2s1 | inconclusive: 29.1 µM [activator, single point] and inconclusive: 29.1 µM [activator, partial curve, poor fit] | 
O=C(COc1ccc(Cl)cc1Cl)N1CCCN(C(=O)COc2ccc(Cl)cc2Cl)CC1 | inconclusive: 20.6 µM [activator, single point] | 
COc1ccc(C(CC(=O)c2ccccc2)S(=O)(=O)c2ccc(C)cc2)cc1 (centres undefined) | inconclusive: 35.5 µM [activator, single point] | 
O=S(=O)(NC1CCCCC1Nc1ccccc1)c1ccccc1 (centres undefined) | inconclusive: 6.51 µM [activator, partial curve, poor fit] | 
CC(=O)NC12CC3CC(C1)CC(C(=O)N(C)CC(=O)Nc1cccc(F)c1)(C3)C2 | inactive | 
CN=c1scc(-c2ccccc2F)n1/N=C(\C)c1cccnc1 | inactive | 
O=C(C[n+]1ccc(C(=O)N/N=C/c2ccc(Cl)cc2Cl)cc1)c1ccccc1 | inconclusive: 3.26 µM [activator, partial curve] | 
CCOC(=O)C1CCN(C(=O)CCC(=O)NCCc2ccc(Cl)cc2)CC1 | inconclusive: 6.51 µM [activator, single point] | 
CCOC(=O)C1=C(COC(=O)c2ccc(Cl)nc2)NC(=O)NC1C (centres undefined) | inactive | 
O=C(COc1ccc(Br)cc1Cl)NC1CCCCC1 | inactive | 
CC(C)(C)OC(=O)CNC(=O)c1nc[nH]c1C(=O)NCc1ccc(CNC(=O)OC(C)(C)C)cc1 | inconclusive: 2.59 µM [activator, partial curve, poor fit] | 
